From paper PMC8887125, “RBBP6 activates the pre-mRNA 3′ end processing machinery in humans” (Genes & Development, 2022) come the findings set out here.

By UniProt entry, the sequences of proteins in these tests, tags left out. Where a name states a change or a piece, a line headed by the entry shows the natural chain unless it says otherwise. Chains listed by the source or under a name are the forms on record and can include a tag or linker.
UniProt Q9P2I0: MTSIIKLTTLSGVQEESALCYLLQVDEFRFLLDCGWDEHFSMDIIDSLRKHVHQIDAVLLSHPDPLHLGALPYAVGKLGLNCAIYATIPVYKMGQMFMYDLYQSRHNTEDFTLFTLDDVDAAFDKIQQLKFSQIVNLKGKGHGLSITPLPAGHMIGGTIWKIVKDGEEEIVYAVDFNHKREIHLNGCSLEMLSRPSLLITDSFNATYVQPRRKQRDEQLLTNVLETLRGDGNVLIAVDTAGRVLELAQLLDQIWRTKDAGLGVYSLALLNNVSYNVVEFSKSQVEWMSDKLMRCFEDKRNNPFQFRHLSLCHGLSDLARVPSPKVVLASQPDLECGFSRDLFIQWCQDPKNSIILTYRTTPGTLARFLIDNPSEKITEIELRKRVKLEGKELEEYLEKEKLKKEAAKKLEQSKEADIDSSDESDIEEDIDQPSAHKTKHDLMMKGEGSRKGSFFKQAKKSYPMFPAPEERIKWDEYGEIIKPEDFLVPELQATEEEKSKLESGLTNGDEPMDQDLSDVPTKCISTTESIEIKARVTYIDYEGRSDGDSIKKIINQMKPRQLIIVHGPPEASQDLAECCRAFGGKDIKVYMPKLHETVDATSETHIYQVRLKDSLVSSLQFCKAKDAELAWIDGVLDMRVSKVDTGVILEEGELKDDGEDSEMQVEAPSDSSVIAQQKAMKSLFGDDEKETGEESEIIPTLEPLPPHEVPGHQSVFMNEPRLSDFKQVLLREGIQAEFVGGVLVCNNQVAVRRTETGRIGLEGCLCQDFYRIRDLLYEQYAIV
UniProt Q92797: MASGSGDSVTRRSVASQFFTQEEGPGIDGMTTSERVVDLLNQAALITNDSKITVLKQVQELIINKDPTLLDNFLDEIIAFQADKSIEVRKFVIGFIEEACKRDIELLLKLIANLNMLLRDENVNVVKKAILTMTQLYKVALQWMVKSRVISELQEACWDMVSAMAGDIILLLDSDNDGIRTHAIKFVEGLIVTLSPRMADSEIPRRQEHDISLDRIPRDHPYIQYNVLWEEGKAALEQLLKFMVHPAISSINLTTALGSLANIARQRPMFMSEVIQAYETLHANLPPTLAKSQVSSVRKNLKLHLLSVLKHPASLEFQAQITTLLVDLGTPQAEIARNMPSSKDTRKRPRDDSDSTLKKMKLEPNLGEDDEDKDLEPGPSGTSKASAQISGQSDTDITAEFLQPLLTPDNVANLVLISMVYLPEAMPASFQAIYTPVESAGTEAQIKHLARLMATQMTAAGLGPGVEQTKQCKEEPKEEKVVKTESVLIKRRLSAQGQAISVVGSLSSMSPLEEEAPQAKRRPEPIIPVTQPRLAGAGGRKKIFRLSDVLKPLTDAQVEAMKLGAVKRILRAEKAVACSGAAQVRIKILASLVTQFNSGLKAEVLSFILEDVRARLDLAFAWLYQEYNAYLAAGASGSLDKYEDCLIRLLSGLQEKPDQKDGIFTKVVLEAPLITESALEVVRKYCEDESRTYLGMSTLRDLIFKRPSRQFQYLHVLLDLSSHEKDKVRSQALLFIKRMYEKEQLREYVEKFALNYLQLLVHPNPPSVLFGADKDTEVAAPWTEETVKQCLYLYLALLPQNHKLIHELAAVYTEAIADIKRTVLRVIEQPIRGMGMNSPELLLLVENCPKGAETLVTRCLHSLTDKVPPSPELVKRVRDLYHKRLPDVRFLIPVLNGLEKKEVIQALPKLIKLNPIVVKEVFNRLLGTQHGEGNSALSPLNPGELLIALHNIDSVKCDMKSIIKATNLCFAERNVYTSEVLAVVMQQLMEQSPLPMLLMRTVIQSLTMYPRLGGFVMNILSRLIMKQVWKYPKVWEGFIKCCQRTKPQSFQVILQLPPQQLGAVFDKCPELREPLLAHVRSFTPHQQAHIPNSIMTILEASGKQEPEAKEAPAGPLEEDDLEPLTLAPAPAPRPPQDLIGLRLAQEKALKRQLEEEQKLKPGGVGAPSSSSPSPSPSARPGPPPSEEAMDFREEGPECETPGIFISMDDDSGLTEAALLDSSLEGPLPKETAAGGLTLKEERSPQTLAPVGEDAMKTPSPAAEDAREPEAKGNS
UniProt Q10570: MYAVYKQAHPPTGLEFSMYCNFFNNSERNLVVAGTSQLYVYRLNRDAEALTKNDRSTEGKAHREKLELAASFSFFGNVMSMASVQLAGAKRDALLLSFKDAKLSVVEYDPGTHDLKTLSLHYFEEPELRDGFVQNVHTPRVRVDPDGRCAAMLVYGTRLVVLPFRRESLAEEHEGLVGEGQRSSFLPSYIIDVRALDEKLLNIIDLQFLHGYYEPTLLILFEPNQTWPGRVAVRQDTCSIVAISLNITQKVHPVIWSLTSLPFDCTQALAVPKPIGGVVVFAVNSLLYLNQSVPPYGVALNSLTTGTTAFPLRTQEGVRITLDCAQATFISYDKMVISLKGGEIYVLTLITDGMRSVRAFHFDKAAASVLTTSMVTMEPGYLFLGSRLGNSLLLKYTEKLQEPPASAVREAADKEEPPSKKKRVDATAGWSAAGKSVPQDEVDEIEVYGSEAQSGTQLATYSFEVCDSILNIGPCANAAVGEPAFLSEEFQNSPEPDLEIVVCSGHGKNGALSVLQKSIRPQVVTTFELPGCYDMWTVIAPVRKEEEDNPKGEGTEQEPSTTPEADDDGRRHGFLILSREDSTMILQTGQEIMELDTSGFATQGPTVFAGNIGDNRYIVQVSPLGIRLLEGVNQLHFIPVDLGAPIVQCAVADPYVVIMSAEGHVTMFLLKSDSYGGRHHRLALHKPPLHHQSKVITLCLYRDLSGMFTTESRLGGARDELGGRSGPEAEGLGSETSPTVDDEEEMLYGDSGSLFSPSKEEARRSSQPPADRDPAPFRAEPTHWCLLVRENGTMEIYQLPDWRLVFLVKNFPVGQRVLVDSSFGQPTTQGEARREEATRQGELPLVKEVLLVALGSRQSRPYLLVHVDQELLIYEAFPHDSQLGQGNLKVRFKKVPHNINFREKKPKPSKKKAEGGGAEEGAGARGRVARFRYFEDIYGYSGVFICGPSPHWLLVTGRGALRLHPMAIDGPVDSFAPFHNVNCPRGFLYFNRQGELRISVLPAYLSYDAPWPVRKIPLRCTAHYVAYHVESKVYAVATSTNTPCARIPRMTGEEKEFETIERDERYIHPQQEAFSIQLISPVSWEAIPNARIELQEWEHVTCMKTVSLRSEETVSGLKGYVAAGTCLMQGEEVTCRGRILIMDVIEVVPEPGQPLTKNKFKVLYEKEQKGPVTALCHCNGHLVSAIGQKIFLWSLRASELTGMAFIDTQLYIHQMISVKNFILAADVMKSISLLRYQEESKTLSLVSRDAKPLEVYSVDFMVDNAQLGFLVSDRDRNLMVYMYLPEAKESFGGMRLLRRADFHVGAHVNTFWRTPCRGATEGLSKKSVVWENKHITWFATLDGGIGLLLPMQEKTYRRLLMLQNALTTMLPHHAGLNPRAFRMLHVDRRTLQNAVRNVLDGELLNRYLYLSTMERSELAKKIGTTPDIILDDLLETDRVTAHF
CPSF30 isoform 2, recombinant (O95639-2, form named): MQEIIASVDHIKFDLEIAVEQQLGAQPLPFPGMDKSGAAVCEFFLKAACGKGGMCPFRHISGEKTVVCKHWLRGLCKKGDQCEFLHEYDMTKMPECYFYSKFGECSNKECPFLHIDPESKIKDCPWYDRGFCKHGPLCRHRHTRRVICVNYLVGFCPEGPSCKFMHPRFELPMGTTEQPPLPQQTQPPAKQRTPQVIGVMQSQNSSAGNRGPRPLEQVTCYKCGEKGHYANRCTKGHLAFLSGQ

Results are given in words; binding and its absence hold for the method and conditions named. For some of these results: In cells and extracts the contact can be indirect. Some binding calls cover weakened binding; strength is not graded here. For some of these results: Sequences can lack the tags named with a protein.

Test [1] concerns the target T1, WDR33 (residues 1-576) with C-terminal StrepII tag, bait of recombinant mPSF (human) (UniProt Q9C0J8).
T1 sequence: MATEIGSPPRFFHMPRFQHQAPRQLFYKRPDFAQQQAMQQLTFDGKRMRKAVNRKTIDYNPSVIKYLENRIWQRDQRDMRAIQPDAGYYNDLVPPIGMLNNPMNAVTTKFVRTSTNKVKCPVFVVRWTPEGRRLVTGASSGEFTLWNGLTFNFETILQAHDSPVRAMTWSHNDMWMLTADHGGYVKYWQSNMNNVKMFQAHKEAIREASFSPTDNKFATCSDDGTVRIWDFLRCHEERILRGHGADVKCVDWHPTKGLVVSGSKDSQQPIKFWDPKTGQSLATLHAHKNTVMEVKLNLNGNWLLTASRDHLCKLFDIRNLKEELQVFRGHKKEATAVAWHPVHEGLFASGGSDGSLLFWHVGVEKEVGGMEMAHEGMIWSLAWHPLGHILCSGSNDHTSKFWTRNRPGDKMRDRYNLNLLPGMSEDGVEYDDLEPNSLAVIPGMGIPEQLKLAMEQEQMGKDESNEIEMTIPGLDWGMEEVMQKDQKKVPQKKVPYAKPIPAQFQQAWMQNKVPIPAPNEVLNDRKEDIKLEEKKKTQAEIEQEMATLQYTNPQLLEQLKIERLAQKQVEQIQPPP
In words: co-purification of co-expressed subunits; subunits co-expressed in insect cells from one pBig1 vector; complex held by the StrepII tag of one subunit on Strep-Tactin beads (300 mM NaCl), then anion exchange and, for most, size exclusion; SDS-PAGE of the purified complex. On the technique in general: In gel filtration, larger molecules generally elute earlier.

The target of test [2] is mCF lacking the N-terminal domain of symplekin (human) (UniProt Q9UKF6+Q9P2I0+Q92797). The test is described as follows: SEC; 2.5 µM CPSF, mCF or mCF_(symplekin ΔNTD) incubated with 10 µM SSU72 for 30 min on ice; Superose 6 Increase 3.2/300; HEPES-NaOH pH 8.0, 150 mM NaCl, 0.5 mM TCEP; peak fractions on SDS-PAGE; both purified.
The target of test [3] is T2, StrepII-tagged ubiquitin-like domain of RBBP6 (residues 1-142) (human) (UniProt Q7Z6E9).
T2 sequence: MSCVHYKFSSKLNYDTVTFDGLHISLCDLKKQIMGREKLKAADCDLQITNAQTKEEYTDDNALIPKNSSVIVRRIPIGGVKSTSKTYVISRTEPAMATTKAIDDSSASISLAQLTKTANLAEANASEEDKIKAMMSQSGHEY
The test is described as follows: pull-down; RBBP6UBL-SII co-expressed with a CPSF73 variant in Sf9 cells; cleared lysate on Strep-Tactin beads; 50 mM HEPES-NaOH pH 8.0, 300 mM NaCl, 1 mM TCEP, 2 mM Mg(OAc)2; stained gel.

The target of test [4] is cleavage and polyadenylation specificity factor (CPSF), recombinant seven-subunit complex with hFip1 isoform 4 (human) (UniProt Q10570). The test is described as follows: SEC; 2.5 µM CPSF and 7.5 µM RBBP6 or its point mutants, without RNA; 30 min on ice; Superose 6 Increase 3.2/300; HEPES-NaOH pH 8.0, 50 mM NaCl, 0.5 mM TCEP; both purified.
The target is the same in test [5]. The test is described as follows: condition: 2.5 µM CPSF, 7.5 µM RBBP6 mutant, 5 µM RNA; SEC; 2.5 µM CPSF and 7.5 µM RBBP6 or its point mutants with 5 µM 5'-FAM 41-nt L3 RNA; 30 min on ice; Superose 6 Increase 3.2/300; HEPES-NaOH pH 8.0, 50 mM NaCl, 0.5 mM TCEP; both purified.

Turning to “CPSF30 isoform 2, recombinant (from UniProt O95639-2 1-244)”, the binding result in test [1] is given as “binds”.

B1: SSU72 (enzyme, human, UniProt Q9NP77 1-194, looked up)
chain: MPSSPLRVAVVCSSNQNRSMEAHNILSKRGFSVRSFGTGTHVKLPGPAPDKPNVYDFKTTYDQMYNDLLRKDKELYTQNGILHMLDRNKRIKPRPERFQNCKDLFDLILTCEERVYDQVVEDLNSREQETCQPVHVVNVDIQDNHEEATLGAFLICELCQCIQHTEDMENEIDELLQEFEEKSGRTFLHTVCFY
notes: SSU72, human; the coding region amplified from the synthetic full-length gene; also called human SSU72; phosphatase SSU72; source: E. coli BL21(DE3) Star, purified (HisTrap, 3C cleavage, Superdex 75); not shown: His6, N-terminal, cleaved
As to B1, the binding entry in test [2] is reported as “no binding (tested: 2.5 µM mCF_(symplekin ΔNTD), 10 µM SSU72)”.

B2: CPSF73 N-terminal nuclease domain (residues 1-460) (domain or fragment, UniProt Q9UKF6 1-460)
chain: MSAIPAEESDQLLIRPLGAGQEVGRSCIILEFKGRKIMLDCGIHPGLEGMDALPYIDLIDPAEIDLLLISHFHLDHCGALPWFLQKTSFKGRTFMTHATKAIYRWLLSDYVKVSNISADDMLYTETDLEESMDKIETINFHEVKEVAGIKFWCYHAGHVLGAAMFMIEIAGVKLLYTGDFSRQEDRHLMAAEIPNIKPDILIIESTYGTHIHEKREEREARFCNTVHDIVNRGGRGLIPVFALGRAQELLLILDEYWQNHPELHDIPIYYASSLAKKCMAVYQTYVNAMNDKIRKQININNPFVFKHISNLKSMDHFDDIGPSVVMASPGMMQSGLSRELFESWCTDKRNGVIIAGYCVEGTLAKHIMSEPEEITTMSGQKLPLKMSVDYISFSAHTDYQQTSEFIRALKPPHVILVHGEQNEMARLKAALIREYEDNDEVHIEVHNPRNTEAVTLNFRG
On to B2, for which the binding entry in test [3] is “binds weakly”.

B3: hFip1 isoform 4, recombinant (protein, UniProt Q6UN15 1-28; Q6UN15 44-393)
chain: MSAGEVERLVSELSGGTGGDEEEEWLYGDENEVERPEEENASANPPSGIEDETAENGVPKPKVTETEDDSDSDSDDDEDDVHVTIGDIKTGAPQYGSYGTAPVNLNIKTGGRVYGTTGTKVKGVDLDAPGSINGVPLLEVDLDSFEDKPWRKPGADLSDYFNYGFNEDTWKAYCEKQKRIRMGLEVIPVTSTTNKITAEDCTMEVTPGAEIQDGRFNLFKVQQGRTGNSEKETALPSTKAEFTSPPSLFKTGLPPSRNSTSSQSQTSTASRKANSSVGKWQDRYGRAESPDLRRLPGAIDVIGQTITISRVEGRRRANENSNIQVLSERSATEVDNNFSKPPPFFPPGAPPTHLPPPPFLPPPPTVSTAPPLIPPPGK
Regarding B3, the binding result in test [1] was “binds”.

B4: RBBP6 (residues 1-335) Y228G (domain or fragment, UniProt Q7Z6E9 1-335)
chain: MSCVHYKFSSKLNYDTVTFDGLHISLCDLKKQIMGREKLKAADCDLQITNAQTKEEYTDDNALIPKNSSVIVRRIPIGGVKSTSKTYVISRTEPAMATTKAIDDSSASISLAQLTKTANLAEANASEEDKIKAMMSQSGHEYDPINYMKKPLGPPPPSYTCFRCGKPGHYIKNCPTNGDKNFESGPRIKKSTGIPRSFMMEVKDPNMKGAMLTNTGKYAIPTIDAEAGAIGKKEKPPFLPEEPSSSSEEDDPIPDELLCLICKDIMTDAVVIPCCGNSYCDECIRTALLESDEHTCPTCHQNDVSPDALIANKFLRQAVNNFKNETGYTKRLRKQ
B4: the binding entry in test [4] was “no binding (tested: 2.5 µM CPSF, 7.5 µM RBBP6 mutant, no RNA)”; in test [5], “no binding”.

B5: RBBP6 (residues 1-335) P195G (domain or fragment, UniProt Q7Z6E9 1-335)
chain: MSCVHYKFSSKLNYDTVTFDGLHISLCDLKKQIMGREKLKAADCDLQITNAQTKEEYTDDNALIPKNSSVIVRRIPIGGVKSTSKTYVISRTEPAMATTKAIDDSSASISLAQLTKTANLAEANASEEDKIKAMMSQSGHEYDPINYMKKPLGPPPPSYTCFRCGKPGHYIKNCPTNGDKNFESGPRIKKSTGIGRSFMMEVKDPNMKGAMLTNTGKYAIPTIDAEAYAIGKKEKPPFLPEEPSSSSEEDDPIPDELLCLICKDIMTDAVVIPCCGNSYCDECIRTALLESDEHTCPTCHQNDVSPDALIANKFLRQAVNNFKNETGYTKRLRKQ
On to B5, for which the binding result in test [4] is “no binding (tested: 2.5 µM CPSF, 7.5 µM RBBP6 mutant, no RNA)”; in test [5], “no binding”.

B6: CPSF73, full length (enzyme, UniProt Q9UKF6 1-684)
chain: MSAIPAEESDQLLIRPLGAGQEVGRSCIILEFKGRKIMLDCGIHPGLEGMDALPYIDLIDPAEIDLLLISHFHLDHCGALPWFLQKTSFKGRTFMTHATKAIYRWLLSDYVKVSNISADDMLYTETDLEESMDKIETINFHEVKEVAGIKFWCYHAGHVLGAAMFMIEIAGVKLLYTGDFSRQEDRHLMAAEIPNIKPDILIIESTYGTHIHEKREEREARFCNTVHDIVNRGGRGLIPVFALGRAQELLLILDEYWQNHPELHDIPIYYASSLAKKCMAVYQTYVNAMNDKIRKQININNPFVFKHISNLKSMDHFDDIGPSVVMASPGMMQSGLSRELFESWCTDKRNGVIIAGYCVEGTLAKHIMSEPEEITTMSGQKLPLKMSVDYISFSAHTDYQQTSEFIRALKPPHVILVHGEQNEMARLKAALIREYEDNDEVHIEVHNPRNTEAVTLNFRGEKLAKVMGFLADKKPEQGQRVSGILVKRNFNYHILSPCDLSNYTDLAMSTVKQTQAIPYTGPFNLLCYQLQKLTGDVEELEIQEKPALKVFKNITVIQEPGMVVLEWLANPSNDMYADTVTTVILEVQSNPKIRKGAVQKVSKKLEMHVYSKRLEIMLQDIFGEDCVSVKDDSILSVTVDGKTANLNLETRTVECEEGSEDDESLREMVELAAQRLYEALTPVH
Turning to B6, the binding entry in test [3] was “binds”.

B7: hFip1, full length, recombinant (protein, UniProt Q6UN15 1-594)
chain: MSAGEVERLVSELSGGTGGDEEEEWLYGGPWDVHVHSDLAKDLDENEVERPEEENASANPPSGIEDETAENGVPKPKVTETEDDSDSDSDDDEDDVHVTIGDIKTGAPQYGSYGTAPVNLNIKTGGRVYGTTGTKVKGVDLDAPGSINGVPLLEVDLDSFEDKPWRKPGADLSDYFNYGFNEDTWKAYCEKQKRIRMGLEVIPVTSTTNKITAEDCTMEVTPGAEIQDGRFNLFKVQQGRTGNSEKETALPSTKAEFTSPPSLFKTGLPPSRNSTSSQSQTSTASRKANSSVGKWQDRYGRAESPDLRRLPGAIDVIGQTITISRVEGRRRANENSNIQVLSERSATEVDNNFSKPPPFFPPGAPPTHLPPPPFLPPPPTVSTAPPLIPPPGFPPPPGAPPPSLIPTIESGHSSGYDSRSARAFPYGNVAFPHLPGSAPSWPSLVDTSKQWDYYARREKDRDRERDRDRERDRDRDRERERTRERERERDHSPTPSVFNSDEERYRYREYAERGYERHRASREKEERHRERRHREKEETRHKSSRSNSRRRHESEEGDSHRRHKHKKSKRSKEGKEAGSEPAPEQESTEATPAE
As for B7, the binding result in test [1] is “binds”.
